The list shows a part of the results. Shown are side measurements of this screen, not its main read-out; they come without a call. Words in brackets tell the shape of the fitted curve; partial curves, single points and poor fits give uncertain potencies.
Experiment: qHTS drug screen for cell cycle checkpoint inhibitors in PARPi-resistant BRCA-mutant ovarian cancer cell lines. (AID 1963452)
Conditions: PEO1/OlaR viability, CellTiter-Glo luminescence, 96 h
Summary of the method: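 PEO1, PEO4 and PEO1/OlaR ovarian cancer cells, 600 per well, exposed 96 h at 37C to a dilution series. Viability read by CellTiter-Glo luminescence, normalized to DMSO and empty wells; activity summarized as Z-AUC.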

[1] = measured here: PEO1 parental viability
Tags give direction and shape of the fitted curve.

Structure (SMILES) | AC50 [1] | AC50 (measured here: PEO4 viability)
CC(C)(C)NC(=O)c1cncn1C1CCN(c2ccc(-c3nnc(C(F)(F)F)o3)cn2)CC1 | 8.71 µM [falling, partial curve, poor fit] | 2.19 µM [falling, partial curve]
OC1CCC(Oc2cccc3cnc(Nc4ccc5nc[nH]c5c4)nc23)CC1 (centres undefined) | 0.776 µM [falling, full curve] | 0.776 µM [falling, full curve, poor fit]
COc1ccc(N(C)c2nc(C)nc3ccccc23)cc1 | 0.0087 µM [falling, full curve] | 0.0098 µM [falling, full curve]
CCN(C(=O)c1c(O)c2c(Cl)cccc2n(C)c1=O)c1ccccc1 | 9.77 µM [falling, partial curve, poor fit] | 4.9 µM [falling, partial curve]
Cc1cc(Nc2ncnc3ccc(NC4=NC(C)(C)CO4)cc23)ccc1Oc1ccn2ncnc2c1 | 13.8 µM [falling, partial curve] | 15.5 µM [falling, single point]
CS(=O)(=O)N1CCC(NC(=O)c2[nH]ncc2NC(=O)c2c(Cl)cccc2Cl)CC1 | 1.74 µM [falling, full curve] | 2.19 µM [falling, full curve]
C/C=C1\NC(=O)[C@H]2CSSCC/C=C\[C@H](CC(=O)N[C@H](C(C)C)C(=O)N2)OC(=O)[C@H](C(C)C)NC1=O | 0.0087 µM [falling, full curve] | 0.0138 µM [falling, full curve]
CNC(=O)c1ccccc1Nc1nc(Nc2ccc3c(c2OC)CCC[C@H](N2CCN(CCO)CC2)C3)ncc1Cl | 4.36 µM [falling, partial curve] | 1.95 µM [falling, full curve]
CC(/C=C/C(=O)NO)=C\[C@@H](C)C(=O)c1ccc(N(C)C)cc1 | 0.776 µM [falling, full curve] | 0.309 µM [falling, full curve]
COC(=O)C1=C(C)NC(C)=C(C(=O)OCCN2CCN(C(c3ccccc3)c3ccccc3)CC2)C1c1cccc([N+](=O)[O-])c1 (centres undefined) | 13.8 µM [falling, partial curve, poor fit] | 27.5 µM [falling, single point]
Cc1ccc(-n2nc(C(C)(C)C)cc2NC(=O)NCc2cc(F)ccc2Oc2ccc3c(cnn3CCO)c2)cc1 | 15.5 µM [falling, partial curve] | 19.5 µM [falling, single point]
CCOc1cc(C(C)(C)C)ccc1C1=N[C@@](C)(c2ccc(Cl)cc2)[C@@](C)(c2ccc(Cl)cc2)N1C(=O)N1CCN(CC(=O)N2CCOCC2)CC1 | 17.1 µM [falling, single point] | 17.1 µM [falling, single point]
CCCC1(CCC)CCC2(CCN(CCCN(CC)CC)C2)CC1 | 3.47 µM [falling, full curve] | 2.19 µM [falling, full curve]
O=C(Nc1ccc2[nH]nc(-c3ccncc3)c2c1)[C@@H]1CCN(CC(=O)N2CCN(c3ccc(-c4ncccn4)cc3)CC2)C1 | 0.195 µM [falling, full curve] | 0.0309 µM [falling, full curve]
COc1ccc(CNC(=O)Nc2ncc([N+](=O)[O-])s2)cc1 | 15.5 µM [falling, single point] | 19.5 µM [falling, single point]
Cn1nccc1Nc1nccc(-c2ccn([C@H](CO)c3ccc(Cl)c(F)c3)c(=O)c2)n1 | 2.75 µM [falling, full curve] | 19.5 µM [falling, single point]
CCc1cc(C(N)=O)ccc1-n1nc(C(C)C)c2c(-n3cnc(-c4cnn(C)c4)c3)ccnc21 | 1.74 µM [falling, full curve] | 3.09 µM [falling, partial curve]
C[C@H]1[C@H](O)O[C@@H]2O[C@@]3(C)CC[C@H]4[C@H](C)CC[C@@H]1[C@@]24OO3 | 8.71 µM [falling, partial curve] | 24.5 µM [falling, single point]
CCCNC(=O)[C@H]1O[C@@H]1C(=O)N[C@H](C(=O)N1CCC[C@H]1C(=O)OC)C(C)CC (some centres undefined) | 24.5 µM [falling, single point] | 17.4 µM [falling, single point]
COc1cc(N2CCN(C)CC2)ccc1Nc1nccc(-c2cn(C)c3cnccc23)n1 | 6.16 µM [falling, partial curve] | 13.8 µM [falling, partial curve]
COc1cc(C(=O)NC2CCN(C)CC2)c(F)cc1Nc1ncc2c(n1)N(C1CCCC1)CC(F)(F)C(=O)N2C | 0.0436 µM [falling, full curve] | 0.0692 µM [falling, full curve]
Cc1ccc(C(=O)Nc2ccc(Oc3cc4cnn(C)c4cc3-c3cn[nH]c3)c(F)c2)c(=O)n1-c1ccc(F)cc1 | 5.49 µM [falling, partial curve] | 2.75 µM [falling, full curve]
COc1cc(C(N)=O)ccc1NC(=O)[C@@H]1N[C@@H](CC(C)(C)C)[C@@]2(C(=O)Nc3cc(Cl)ccc32)[C@H]1c1cccc(Cl)c1F | 27.5 µM [falling, single point] | 13.8 µM [falling, partial curve]
CN(C)CCNC(=O)NC[C@H]1CC[C@@H]2[C@H](O1)c1cc(C(F)(F)F)ccc1N[C@H]2c1ccccc1 | 0.389 µM [falling, full curve] | 0.245 µM [falling, full curve]
CNc1ncc2cc(-c3cc(NC(=O)NCCC(C)(C)C)c(F)cc3C)c(C)nc2n1 | 5.49 µM [falling, partial curve] | 2.45 µM [falling, partial curve]
CC(=O)O/N=C1\C(=O)N(Cc2cc(Cl)ccc2Cl)c2ccc(Cl)cc21 | 15.5 µM [falling, single point] | 13.8 µM [falling, single point]
CN(C)CCN1C(=O)c2cccc3cc(NC(N)=O)cc(c23)C1=O | 27.5 µM [falling, single point] | 27.5 µM [falling, single point]
